About 2,200 (0.71%) of roughly 310,000 compounds showed an effect of 50% or more. The effect is printed as a negative number. The list shows a part of the results.
molecular target: human ether-à-go-go-related gene (hERG) potassium channel (human, UniProt Q12809); assay: primary screen, population patch clamp on CHO cells stably expressing hERG
Sequence (Q12809 whole entry, looked up): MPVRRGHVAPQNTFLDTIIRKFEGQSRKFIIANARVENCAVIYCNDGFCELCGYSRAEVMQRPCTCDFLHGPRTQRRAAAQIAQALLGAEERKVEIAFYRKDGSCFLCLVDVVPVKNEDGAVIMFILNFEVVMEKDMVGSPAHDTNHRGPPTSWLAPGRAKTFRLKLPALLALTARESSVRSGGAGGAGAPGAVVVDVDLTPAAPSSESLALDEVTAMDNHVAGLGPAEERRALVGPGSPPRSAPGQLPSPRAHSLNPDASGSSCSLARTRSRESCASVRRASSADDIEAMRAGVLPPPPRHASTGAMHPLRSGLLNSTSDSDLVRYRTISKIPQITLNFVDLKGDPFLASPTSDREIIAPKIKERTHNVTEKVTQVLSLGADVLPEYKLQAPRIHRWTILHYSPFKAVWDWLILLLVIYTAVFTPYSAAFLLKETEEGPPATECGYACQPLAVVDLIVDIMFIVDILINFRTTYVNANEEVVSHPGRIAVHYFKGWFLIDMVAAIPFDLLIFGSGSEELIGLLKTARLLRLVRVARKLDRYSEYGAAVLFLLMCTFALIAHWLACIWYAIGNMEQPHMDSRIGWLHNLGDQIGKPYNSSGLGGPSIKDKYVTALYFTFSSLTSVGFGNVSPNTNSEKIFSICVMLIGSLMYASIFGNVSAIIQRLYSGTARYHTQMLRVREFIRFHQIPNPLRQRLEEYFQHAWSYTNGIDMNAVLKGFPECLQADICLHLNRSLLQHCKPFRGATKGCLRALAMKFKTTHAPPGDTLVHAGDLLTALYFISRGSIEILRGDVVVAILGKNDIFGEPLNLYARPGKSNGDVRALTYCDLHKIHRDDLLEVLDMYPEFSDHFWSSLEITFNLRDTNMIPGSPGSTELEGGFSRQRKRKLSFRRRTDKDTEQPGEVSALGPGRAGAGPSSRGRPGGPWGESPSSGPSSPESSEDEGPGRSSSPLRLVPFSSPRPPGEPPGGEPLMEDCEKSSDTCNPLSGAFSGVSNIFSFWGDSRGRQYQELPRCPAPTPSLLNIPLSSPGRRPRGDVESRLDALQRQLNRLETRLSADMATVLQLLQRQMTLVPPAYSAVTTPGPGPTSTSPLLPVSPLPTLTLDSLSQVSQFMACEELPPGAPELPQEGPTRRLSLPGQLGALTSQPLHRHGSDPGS

Question: N#Cc1ccc(CSc2nnc(COc3ccccc3)n2-c2ccccc2)cc1 was tested. Which “hERG current change (%, negative = inhibition) at 1uM” value did it give?
Answer: -2.87%

Question: Which “hERG current change (%, negative = inhibition) at 1uM” value does the source give for CCCCSc1nnc(-c2ccccc2N)c(=O)[nH]1 here?
Answer: 7.89%

Question: O=C(NC(=S)Nc1ccccc1Br)C1CCC1 was tested. Which “hERG current change (%, negative = inhibition) at 1uM” value did it give?
Answer: -4.42%

Question: Which “hERG current change (%, negative = inhibition) at 1uM” value does the source give for N=C1c2ccccc2CN1NC(=O)c1ccccc1 here?
Answer: 11.3%

Question: With COc1ccc(CCNC(=O)c2noc(C)c2[N+](=O)[O-])cc1OC as the compound, how does the “hERG current change (%, negative = inhibition) at 1uM” value read?
Answer: 11.5%

Question: For COc1ccc(NC(=O)CN(c2ccccc2F)S(=O)(=O)c2ccc(C)cc2)cc1, which “hERG current change (%, negative = inhibition) at 1uM” value is on record?
Answer: 16.1%

Question: Which “hERG current change (%, negative = inhibition) at 1uM” value does the source give for COc1ccc(Cn2c(-c3ccccc3C)nc3c(c(=O)c4ccccc4n3C)c2=O)cc1 here?
Answer: 9.74%

Question: With CC(C)=CCN1CCN(Cc2ccc(C#CC(C)(C)O)cc2)CC1CCO (stereo not shown) as the compound, how does the “hERG current change (%, negative = inhibition) at 1uM” value read?
Answer: 12.7%

Question: O=S(=O)(Nc1cccc(-c2cn3c(n2)SCC3)c1)c1cccs1 was tested. Which “hERG current change (%, negative = inhibition) at 1uM” value did it give?
Answer: -8.99%

Question: With CSc1nc(-c2ccc(F)cc2)cc(=O)[nH]1 as the compound, how does the “hERG current change (%, negative = inhibition) at 1uM” value read?
Answer: 7.35%

Question: Which “hERG current change (%, negative = inhibition) at 1uM” value does the source give for COC(=O)C1SCC2C(=O)N(Cc3cccc(C)c3)CC(=O)N21 (stereo not shown) here?
Answer: 10.5%

Question: Which “hERG current change (%, negative = inhibition) at 1uM” value does the source give for COc1ccc(-n2nc(C(=O)NCC(=O)Nc3ccccn3)c3ccccc3c2=O)cc1 here?
Answer: 12.1%

Question: For CC(=O)c1ccc(NC(=S)N2CCN(C(=S)Nc3ccc(C(C)=O)cc3)C(C)C2)cc1 (stereo not shown), which “hERG current change (%, negative = inhibition) at 1uM” value is on record?
Answer: 5.52%

Question: CC(=O)OCCc1c2ccccc2c(CCCN(C)C)c2ccccc12 was tested. Which “hERG current change (%, negative = inhibition) at 1uM” value did it give?
Answer: 12.4%

Question: O=C(NNC(=O)C1CCN(Cc2cccc(F)c2)CC1)c1cccs1 was tested. Which “hERG current change (%, negative = inhibition) at 1uM” value did it give?
Answer: 13.3%

Question: For Cc1cc(C)nc(NC(=O)CCC2CCCC2)c1, which “hERG current change (%, negative = inhibition) at 1uM” value is on record?
Answer: 6.2%

Question: Which “hERG current change (%, negative = inhibition) at 1uM” value does the source give for O=C(CN1C(=O)c2ccccc2S1(=O)=O)N1CCN(c2ccccc2)CC1 here?
Answer: 9.73%

Question: For CC1CCN(c2ccc(NC(=O)c3cccnc3Cl)cc2)CC1, which “hERG current change (%, negative = inhibition) at 1uM” value is on record?
Answer: 13.1%

Question: With CCOc1ccc(C(C)=O)cc1CN1C(=O)C(=O)N(CC)C1=O as the compound, how does the “hERG current change (%, negative = inhibition) at 1uM” value read?
Answer: 11.8%

Question: O=C(CNS(=O)(=O)Cc1ccccc1)NCc1ccccc1 was tested. Which “hERG current change (%, negative = inhibition) at 1uM” value did it give?
Answer: 10.4%

Question: CCOC(=O)C1CCN(C(=O)CCCOc2ccccc2)CC1 was tested. Which “hERG current change (%, negative = inhibition) at 1uM” value did it give?
Answer: 9.98%

Question: How did the “hERG current change (%, negative = inhibition) at 1uM” value turn out when CCN1CCN(CCCNC(=O)CCC(=O)N2CCOc3ccccc32)CC1 was run?
Answer: -4.42%

Question: For Cc1ccc(C(=O)CSc2n[nH]c(-c3ccco3)n2)cc1C, which “hERG current change (%, negative = inhibition) at 1uM” value is on record?
Answer: 11.6%

Question: With CCOc1ccc(CCNC(=O)Cn2c(=O)oc3ccccc32)cc1OCC as the compound, how does the “hERG current change (%, negative = inhibition) at 1uM” value read?
Answer: -1.8%

Question: With Fc1ccccc1NC(=S)Nn1cnnc1 as the compound, how does the “hERG current change (%, negative = inhibition) at 1uM” value read?
Answer: 14.3%

Question: Which “hERG current change (%, negative = inhibition) at 1uM” value does the source give for Clc1ccc(-c2nc3ccccn3c2CN2CCOCC2)cc1 here?
Answer: 4.44%

Question: For CCCN(c1ccc(C(C)C)cc1)S(=O)(=O)c1c(C)[nH]c(=O)[nH]c1=O, which “hERG current change (%, negative = inhibition) at 1uM” value is on record?
Answer: -4.42%

Question: O=C(CC1C(=O)NCCN1Cc1ccc(F)cc1Cl)NC1CCCCCCC1 (stereo not shown) was tested. Which “hERG current change (%, negative = inhibition) at 1uM” value did it give?
Answer: 1.63%

Question: COc1ccccc1Oc1ccc(N/C=C/C(=O)c2ccc(C)o2)cc1 was tested. Which “hERG current change (%, negative = inhibition) at 1uM” value did it give?
Answer: 10.6%

Question: Which “hERG current change (%, negative = inhibition) at 1uM” value does the source give for O=C(Nc1nc2cc3c(cc2s1)OCO3)C1CCCCC1 here?
Answer: 11.3%

Question: CCO[C@@H]1OC(C(=O)NCc2nc3ccccc3[nH]2)=C[C@H](c2cn(C(C)=O)c3ccccc23)[C@H]1CCCO was tested. Which “hERG current change (%, negative = inhibition) at 1uM” value did it give?
Answer: 7.13%

Question: For CC(C(=O)OCC(=O)c1ccc(F)cc1)N1C(=O)C2C3C=CC(C3)C2C1=O (stereo not shown), which “hERG current change (%, negative = inhibition) at 1uM” value is on record?
Answer: 6.84%

Question: CCc1ccc(OCCCN=C(C)c2c(O)n(C)c(=O)n(C)c2=O)cc1 was tested. Which “hERG current change (%, negative = inhibition) at 1uM” value did it give?
Answer: -6.69%

Question: How did the “hERG current change (%, negative = inhibition) at 1uM” value turn out when COc1ccc(N(CC(=O)Nc2cccc(N(C)S(C)(=O)=O)c2)S(C)(=O)=O)cc1OC was run?
Answer: 11.5%

Question: With CCOC(=O)C1CCN(C(=O)CN(c2ccc(Cl)c(C(F)(F)F)c2)S(C)(=O)=O)CC1 as the compound, how does the “hERG current change (%, negative = inhibition) at 1uM” value read?
Answer: -2.83%

Question: Which “hERG current change (%, negative = inhibition) at 1uM” value does the source give for CCOc1ccccc1NC(=O)CN1CCC(NC(=O)c2ccccc2C)CC1 here?
Answer: -19%

Question: With CN(C)CCCN(C(=O)COc1ccccc1)c1nc2c(F)cccc2s1.Cl as the compound, how does the “hERG current change (%, negative = inhibition) at 1uM” value read?
Answer: -55.8%

Question: Oc1ccc(-c2csc(Nc3ccccn3)n2)cc1O was tested. Which “hERG current change (%, negative = inhibition) at 1uM” value did it give?
Answer: 10.9%

Question: CN(C(=O)c1cc2sccc2n1C)C1CCCCC1 was tested. Which “hERG current change (%, negative = inhibition) at 1uM” value did it give?
Answer: 3.38%

Question: How did the “hERG current change (%, negative = inhibition) at 1uM” value turn out when N#Cc1cc2ccc(N3CCOCC3)cc2cc1C#N was run?
Answer: 1.41%

Question: COc1ccc(CCNC(=O)C2CCCN(S(=O)(=O)c3cc(C)ccc3OC)C2)cc1OC (stereo not shown) was tested. Which “hERG current change (%, negative = inhibition) at 1uM” value did it give?
Answer: 4.69%

Question: Which “hERG current change (%, negative = inhibition) at 1uM” value does the source give for CC(=O)Nc1ccc(NC(=O)CSc2nnc(-c3ccco3)o2)cc1 here?
Answer: 12.9%

Question: For CCOC(=O)c1ccccc1NS(=O)(=O)c1ccc(OC)cc1, which “hERG current change (%, negative = inhibition) at 1uM” value is on record?
Answer: 6.33%

Question: Which “hERG current change (%, negative = inhibition) at 1uM” value does the source give for O=C(NCC1CCCO1)c1cc(-c2ccccc2)nc2ccc(Br)cc12 (stereo not shown) here?
Answer: 4.16%

Question: For Cc1cc(C)n(-c2ccc(C(=O)OCn3nnc4ccccc4c3=O)cc2)n1, which “hERG current change (%, negative = inhibition) at 1uM” value is on record?
Answer: 6.23%

Question: For O=C(/C=C/Nc1ccc(Br)cc1F)c1ccccc1, which “hERG current change (%, negative = inhibition) at 1uM” value is on record?
Answer: -1.69%

Question: CCCCCCCCOC(=O)C(NC(=O)CCC(=O)Nc1ccc(S(N)(=O)=O)cc1)C(O)c1ccccc1 (stereo not shown) was tested. Which “hERG current change (%, negative = inhibition) at 1uM” value did it give?
Answer: 16.8%

Question: For Cc1ccccc1NC(=O)NCC1CCCO1 (stereo not shown), which “hERG current change (%, negative = inhibition) at 1uM” value is on record?
Answer: 17.4%

Question: With Cc1ccc(S(=O)(=O)N2CCCCC2)cc1NC(=O)c1ccc2ccccc2n1 as the compound, how does the “hERG current change (%, negative = inhibition) at 1uM” value read?
Answer: 21.9%

Question: N=C1C(c2nc(-c3ccc(Cl)cc3)cs2)=C(O)CN1NC(=O)c1ccc(O)cc1 was tested. Which “hERG current change (%, negative = inhibition) at 1uM” value did it give?
Answer: 7.9%

Question: Which “hERG current change (%, negative = inhibition) at 1uM” value does the source give for Cc1nc2ccc(NC(=O)Cc3cccc(F)c3)cc2s1 here?
Answer: 7.15%

Question: Which “hERG current change (%, negative = inhibition) at 1uM” value does the source give for CCCOc1ccc(NC(=O)C2CC(=O)N(C(C)C)C2)cc1 (stereo not shown) here?
Answer: 9.23%

Question: Which “hERG current change (%, negative = inhibition) at 1uM” value does the source give for Nn1c(SCc2ccccc2F)nnc1-c1ccncc1 here?
Answer: 9.1%

Question: How did the “hERG current change (%, negative = inhibition) at 1uM” value turn out when COc1ccc(C(C)NC(=O)c2ccc(Cl)cc2)cc1OC (stereo not shown) was run?
Answer: 10.6%

Question: How did the “hERG current change (%, negative = inhibition) at 1uM” value turn out when COc1ccc(N2CCN(S(=O)(=O)CCNC(=O)COc3ccccc3)CC2)cc1 was run?
Answer: 3.77%

Question: With CC(C)(CO)NC(=O)C(c1ccccc1)c1ccccc1 as the compound, how does the “hERG current change (%, negative = inhibition) at 1uM” value read?
Answer: 12.8%

Question: With CCOc1ccc(-c2nnc(-c3ccccc3)o2)cc1 as the compound, how does the “hERG current change (%, negative = inhibition) at 1uM” value read?
Answer: 12.9%

Question: How did the “hERG current change (%, negative = inhibition) at 1uM” value turn out when Cc1cccc2cc(CN(CCN3CCOCC3)C(=O)Nc3ccccc3F)c(=O)[nH]c12 was run?
Answer: 13.9%
